Results taken from patent US20220289815A1 (KITE PHARMA, published 2022).

Target: T1, IL-15Rbeta/gamma (UniProt P14784 27-551; P31785 23-369, limits assumed)
T1 sequence (looked up) 1: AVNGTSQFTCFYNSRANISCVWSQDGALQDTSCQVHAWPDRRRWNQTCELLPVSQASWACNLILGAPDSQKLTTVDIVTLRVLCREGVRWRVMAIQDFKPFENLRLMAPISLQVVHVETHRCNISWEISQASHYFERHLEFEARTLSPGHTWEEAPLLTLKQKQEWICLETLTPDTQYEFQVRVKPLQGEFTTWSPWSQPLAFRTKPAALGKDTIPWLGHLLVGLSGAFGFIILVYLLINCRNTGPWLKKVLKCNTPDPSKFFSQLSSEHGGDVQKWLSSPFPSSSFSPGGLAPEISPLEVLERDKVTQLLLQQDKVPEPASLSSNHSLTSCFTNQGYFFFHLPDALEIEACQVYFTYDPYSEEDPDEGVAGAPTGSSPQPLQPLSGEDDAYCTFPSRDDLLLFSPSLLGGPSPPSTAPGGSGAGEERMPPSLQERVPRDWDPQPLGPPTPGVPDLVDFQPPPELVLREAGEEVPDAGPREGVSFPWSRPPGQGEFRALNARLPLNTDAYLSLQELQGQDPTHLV
T1 sequence (looked up) 2: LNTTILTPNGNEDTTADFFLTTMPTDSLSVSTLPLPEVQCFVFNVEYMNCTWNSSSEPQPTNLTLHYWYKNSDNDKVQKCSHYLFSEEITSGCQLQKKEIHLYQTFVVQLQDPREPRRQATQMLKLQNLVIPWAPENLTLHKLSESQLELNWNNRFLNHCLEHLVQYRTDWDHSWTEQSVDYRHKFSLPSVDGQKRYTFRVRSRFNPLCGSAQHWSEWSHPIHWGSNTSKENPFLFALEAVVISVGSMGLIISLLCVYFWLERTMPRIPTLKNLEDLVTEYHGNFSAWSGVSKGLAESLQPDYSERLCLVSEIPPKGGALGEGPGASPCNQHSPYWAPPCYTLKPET
Test: cell-based or functional assay

Binder	increase in pSTAT5 signaling [fold]
membrane-bound IL-15-IL-15Rα sushi domain chimeric receptor monomer (FAS transmembrane domain, N-terminal Myc tag) (other) EQKLISEEDLAGS[no letters for about 120 residues]SGGGSGGGGSGGGGSGGGGSGGGSITCPPPMSVEHADIWVKSYSLYSRERYICNSGFKRKAGTSSLTECVLNKATNVAHWTTPSLKCIRDGGGGSGGGGSRSNLGWLCLLLLPIPLIVWVKRKEVQKT	> 7
membrane-bound IL-15-IL-15Rα sushi domain chimeric receptor dimer (IL-7 CPT mutein transmembrane domain, N-terminal Myc tag) (other) EQKLISEEDLAGS[no letters for about 120 residues]SGGGSGGGGSGGGGSGGGGSGGGSITCPPPMSVEHADIWVKSYSLYSRERYICNSGFKRKAGTSSLTECVLNKATNVAHWTTPSLKCIRDGGGGSGGGGSPILLTCPTISILSFFSVALLVILACVLW	> 7
